{"source": "PubChem BioAssay AID504832", "about": "(National Center for Advancing Translational Sciences (NCATS), 2011)", "note": "The whole screen tested about 310,000 compounds, of which about 18,000 (5.8%) were called active. Inconclusive results, whose numbers are uncertain, are shown with a selection of clear calls. Calls come from the whole dose curve; as a rule, active = well fitted inhibition curve with a large enough effect; inconclusive = small, poorly fitted or top-dose-only effect, or another doubt; inactive = no such curve, though single readings can be large or run the other way. No potency is given beside an inconclusive call; the fits are too rough. % is set by controls: 0 for no effect and ±100 for the full control effect; potency is the fitted concentration of half-maximal effect; tags give direction and shape of the fitted curve."}
{"assay": "Primary qHTS for delayed death inhibitors of the malarial parasite plastid, 48 hour incubation", "details": "P. falciparum luciferase growth in erythrocytes; series mostly up to 28.7 µM; activity change, negative = inhibition: at the top concentration", "how_it_was_run": "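Cell-based growth assay: transgenic P. falciparum expressing firefly luciferase, cultured in red cells within RPMI 1640 containing 0.5% w/v Albumax, 24 mM bicarbonate and gentamycin. A drop in luciferase activity indicates inhibition.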"}
{"smiles": "CCN1C(=O)C2C(C1=O)N1C(c3cccs3)C3C(=O)N(CC)C(=O)C3N1C2c1cccs1", "note": "(stereo not given)", "Potency": "inconclusive [inhibitor, partial curve, poor fit]"}
{"smiles": "CC1(C)CC(N2CCN(Cc3ccccc3)CC2)=CC(=[N+]2CCCCC2)C1", "Potency": "active: 0.828 µM"}
{"smiles": "CCC[C@@H](CNC)NC[C@H](Cc1ccccc1)NCCCCc1ccccc1", "Potency": "inconclusive [inhibitor, full curve]"}
{"smiles": "CCOC(=O)C1=C(C)NC(C)=C(C(=O)OCCNC(=O)c2cccnc2)C1c1cccc([N+](=O)[O-])c1", "note": "(stereo not given)", "Potency": "inconclusive [inhibitor, partial curve]"}
{"smiles": "CC1CCN(c2cc(N3CCC(C)CC3)c([N+](=O)[O-])cc2/C=C(\\C#N)c2nn(-c3ccccc3)c(N)c2C#N)CC1", "Potency": "inconclusive [inhibitor, full curve]"}
{"smiles": "CC(C)CCNC(=O)c1ccc(-c2ccccc2)cc1", "activity change, negative = inhibition": "inactive: 39.6%"}
{"smiles": "Oc1ccc2c(c1)oc1cc(O)ccc12", "activity change, negative = inhibition": "inactive: 59.9%"}
{"smiles": "CC1(C)Oc2ccc3ccc(=O)oc3c2[C@@H](O)[C@@H]1O", "Potency": "inconclusive [inhibitor, single point]"}
{"smiles": "COc1cccc(/C=C2\\Oc3ccc(O)cc3C2=O)c1O", "Potency": "active: 5.22 µM"}
{"smiles": "O=C(N/N=C/c1cccc([N+](=O)[O-])c1O)c1cccs1", "Potency": "inconclusive [inhibitor, single point]"}
{"smiles": "Cc1ccc(-c2nnc(N3CCN(C(=O)CSc4ncn[nH]4)CC3)c3ccccc23)cc1", "Potency": "active: 10.4 µM"}
{"smiles": "CC(C)NC(=O)C(=O)NCCCN1CCOCC1", "activity change, negative = inhibition": "inactive: -21.5%"}
{"smiles": "CC1CN(C(=O)C(Sc2ccccc2)c2ccccc2)CC(C)O1", "note": "(stereo not given)", "activity change, negative = inhibition": "inactive: 9.44%"}
{"smiles": "O=C(Nc1ccccc1)C1=C[C@@H](c2ccc(Br)cc2)C[C@@H](OCc2ccc(CO)cc2)O1", "Potency": "inconclusive [inhibitor, partial curve, poor fit]"}
{"smiles": "C(=N\\N=C\\c1cccnc1)/c1cccnc1", "Potency": "inconclusive [inhibitor, partial curve]"}
{"smiles": "Cc1ccc(CNC(=O)c2ccc(Cn3nc(C)c(Cl)c3C)o2)cc1", "activity change, negative = inhibition": "inactive: 9.58%"}
{"smiles": "O=C(Nc1ccccc1N1CCCC1)c1cc(Cl)ccc1Cl", "Potency": "inconclusive [inhibitor, single point]"}
{"smiles": "Cc1ccc(S(=O)(=O)N2CCC(C(=O)Nc3ccc(N4CCOCC4)cc3)CC2)cc1C", "Potency": "active: 4.15 µM"}
{"smiles": "CCC(C)(C#CCN1CCCCC1)OC(C)=O", "note": "(stereo not given)", "Potency": "inconclusive [inhibitor, single point]"}
{"smiles": "Cc1ccc([N+](=O)[O-])c2c1C(N1CC(C)OC(C)C1)C(C)(C)O2", "note": "(stereo not given)", "Potency": "inconclusive [inhibitor, partial curve, poor fit]"}
{"smiles": "Cc1cc(=O)oc2c3c(cc(OCC(=O)NCC(=O)O)c12)OC(C)(C)CC3", "activity change, negative = inhibition": "inactive: -6.58%"}
{"smiles": "CCN1CCN(c2cc(C)c3cc(NC(=S)N4CCCCC4)ccc3n2)CC1", "Potency": "inconclusive [inhibitor, single point]"}
{"smiles": "O=C(Nc1ccc(N2CCN(Cc3ccccc3F)CC2)cc1)c1ccc([N+](=O)[O-])o1", "Potency": "active: 1.85 µM"}
{"smiles": "CC(C)COC(=O)N(C)c1ccc(C(O)(C(F)(F)F)C(F)(F)F)cc1", "Potency": "inconclusive [inhibitor, single point]"}
{"smiles": "CCn1c(C(O)c2ccc3c(c2)OCO3)nc2ccccc21", "note": "(stereo not given)", "Potency": "inconclusive [inhibitor, partial curve]"}
{"smiles": "CC(C)(CN1CCC(Cc2ccccc2)CC1)NS(=O)(=O)c1ccccc1", "Potency": "active: 11.7 µM"}
{"smiles": "CCOc1ccccc1N(CC(=O)NC1CCCCC1)S(C)(=O)=O", "Potency": "inconclusive [inhibitor, partial curve, poor fit]"}
{"smiles": "COc1ccc(S(=O)(=O)NCC(=O)Nc2cccc(C)c2C)cc1OC", "activity change, negative = inhibition": "inactive: -7.79%"}
{"smiles": "CC(C)CCN1CCN=C1N(C)C", "activity change, negative = inhibition": "inactive: 37%"}
{"smiles": "COc1cccc(C(=O)NCC2CCCN2S(=O)(=O)c2cccs2)c1", "note": "(stereo not given)", "Potency": "inconclusive [inhibitor, single point]"}
{"smiles": "Cc1nnc(SCc2cc(=O)oc3cc(O)ccc23)n1Cc1ccccc1", "Potency": "inconclusive [inhibitor, partial curve, poor fit]"}
{"smiles": "Cc1c(C)c2ccc(OCc3ccc(C(=O)O)o3)c(C)c2oc1=O", "activity change, negative = inhibition": "inactive: 134%"}
{"smiles": "CC(=O)Nc1sc(-c2ccc(Cl)cc2)nc1-c1ccccc1", "activity change, negative = inhibition": "inactive: 12%"}
{"smiles": "C/C(=N\\Nc1ccc2nncn2n1)c1ccccn1", "Potency": "inconclusive [inhibitor, full curve]"}
{"smiles": "COc1ccc(N2CCCn3c2nc2c3c(=O)n(CCc3ccccc3)c(=O)n2C)cc1", "activity change, negative = inhibition": "inactive: -1.64%"}
{"smiles": "Nc1nccc(/C=C/c2c(Cl)cccc2Cl)n1", "Potency": "inconclusive [inhibitor, partial curve, poor fit]"}
{"smiles": "COc1ccc(C[C@H]2CN3C(=NC[C@@H]3Cc3ccccc3)N2CCNC(=O)CCC2CCCCC2)cc1", "Potency": "active: 3.7 µM"}
{"smiles": "Cn1c(=O)[nH]c(=O)c2c1nc([N+](=O)[O-])n2Cc1ccccc1", "Potency": "active: 7.38 µM"}
{"smiles": "CCCCc1cc(=O)oc2cc(OCC(=O)NC3CCN(Cc4ccccc4)CC3)ccc12", "Potency": "inconclusive [inhibitor, full curve]"}
{"smiles": "COc1ccccc1OCC(=O)Nc1nonc1NC(=O)COc1ccccc1OC", "Potency": "inconclusive [inhibitor, single point]"}
{"smiles": "Cc1ccc(OCC(=O)N(C)CC(=O)N(CC(C)C)c2c(N)n(CC(C)C)c(=O)[nH]c2=O)c(C)c1", "Potency": "inconclusive [inhibitor, single point]"}
{"smiles": "Cc1cccnc1NC(=O)Nc1ccc(Cl)cc1", "activity change, negative = inhibition": "inactive: 128%"}
{"smiles": "CC(=O)/C(=N\\Nc1ccccc1)Oc1ccc([N+](=O)[O-])cc1", "Potency": "active: 9.28 µM"}
{"smiles": "COc1ccc(NC(=O)COc2ccc(-c3nn(C)c(=O)c4ccccc34)cc2)cc1", "activity change, negative = inhibition": "inactive: -4.97%"}
{"smiles": "Cc1nn(-c2ccccc2)c2c1C1(C(=O)N3c4c(cccc41)C(C)CC3(C)C)C(C#N)=C(N)O2", "note": "(stereo not given)", "Potency": "inconclusive [inhibitor, single point]"}
{"smiles": "CCCn1c(/C=N/Nc2nc3ccccc3[nH]2)nc2ccccc21", "Potency": "active: 1.85 µM"}
{"smiles": "N=c1ccn(CC(=O)c2ccc(-c3ccccc3)cc2)cc1", "Potency": "active: 0.828 µM"}
{"smiles": "CC(C)=CCC1C(=O)N(c2ccccc2)N(c2ccccc2)C1=O", "Potency": "inconclusive [inhibitor, partial curve, poor fit]"}
{"smiles": "CCCSc1nnc(N2C(=O)CC(c3ccsc3)C3=C2CCCC3=O)s1", "note": "(stereo not given)", "Potency": "inconclusive [inhibitor, single point]"}
{"smiles": "COc1ccc(CCCc2nnc(SCc3nc4ccccc4c(=O)[nH]3)n2C)c(C)c1", "Potency": "inconclusive [inhibitor, partial curve]"}
{"smiles": "COc1ccc(S(=O)(=O)N2CCN(c3ccccc3)CC2)cc1", "activity change, negative = inhibition": "inactive: 17.5%"}
{"smiles": "CCOC(=O)C1=C(C)NC2=C(C(=O)c3ccccc32)C1c1cccc2ccccc12", "note": "(stereo not given)", "Potency": "inconclusive [inhibitor, single point]"}
{"smiles": "C=CCn1nnnc1SCC(=O)Nc1cccc(C(F)(F)F)c1", "activity change, negative = inhibition": "inactive: 23.4%"}
{"smiles": "COC(=O)c1ccc2c(=O)[nH]c(CN3c4ccccc4CC3C)nc2c1", "note": "(stereo not given)", "Potency": "inconclusive [inhibitor, partial curve]"}
{"smiles": "COc1ccc(Br)cc1CN(C)C(C)C(=O)Nc1cccc(C(C)=O)c1", "note": "(stereo not given)", "Potency": "inconclusive [inhibitor, partial curve, poor fit]"}
{"smiles": "COC(CNC(=O)CCc1c(C)nc2c(c(C)nn2-c2ccc(C)cc2)c1C)OC", "Potency": "active: 2.62 µM"}
{"smiles": "C/C(=N/NC(=O)c1ccc(Br)o1)c1cccc(NC(=O)c2ccc(C)o2)c1", "activity change, negative = inhibition": "inactive: -11.9%"}
{"smiles": "CC[C@@]12C(=O)N(c3cccc(Br)c3)C(=O)N1[C@H](c1ccc(F)cc1)[C@@H]1C(=O)N(C3CCCCC3)C(=O)[C@@H]12", "Potency": "inconclusive [inhibitor, single point]"}
{"smiles": "Cc1cc(=O)n2nc(N3CCCC(C(=O)NCCCN4CCc5ccccc5C4)C3)sc2n1", "note": "(stereo not given)", "Potency": "inconclusive [inhibitor, partial curve]"}
{"smiles": "Cc1ccc(S(=O)(=O)N2CCN(C(=O)CC(C)n3nc(C)c(Cl)c3C)CC2)cc1C", "note": "(stereo not given)", "Potency": "inconclusive [inhibitor, partial curve, poor fit]"}
{"smiles": "COc1cc(C(C(=O)NC2CCCC2)N(C(=O)c2snc(C(N)=O)c2N)C2CCCC2)cc(OC)c1OC", "note": "(stereo not given)", "Potency": "inconclusive [inhibitor, single point]"}
{"smiles": "CCN1CCCC1CNCc1ccccc1OCc1ccc(F)cc1", "note": "(stereo not given)", "Potency": "active: 10.4 µM"}
{"smiles": "COc1cccc(NC(=O)CN2C(=O)c3cccnc3Oc3ccc(Cl)cc32)c1", "Potency": "active: 13.1 µM"}
{"smiles": "O=C1CSC(c2ccc(Cl)c(Cl)c2)N1c1nccs1", "note": "(stereo not given)", "Potency": "inconclusive [inhibitor, partial curve]"}
{"smiles": "Cc1noc(C)c1C(=O)N1CCCC(N2CCN(c3cccc(C(F)(F)F)c3)CC2)C1", "note": "(stereo not given)", "Potency": "inconclusive [inhibitor, partial curve]"}
{"smiles": "Cc1ccccc1NC(=O)NC1(C(=O)N2CCC(C(N)=O)CC2)CCCCC1", "activity change, negative = inhibition": "inactive: 19.4%"}
{"smiles": "CCCCNC(=S)N(C)/N=C/c1ccc(OCC(=O)Nc2c(C)cc(C)cc2C)c(OC)c1", "Potency": "inconclusive [inhibitor, partial curve, poor fit]"}
{"smiles": "CN(CC(=O)Nc1ccc(F)c(F)c1F)C(=O)C1CCCO1", "note": "(stereo not given)", "Potency": "inconclusive [inhibitor, full curve, poor fit]"}
{"smiles": "CC(=O)c1cccc(-n2nnnc2SCC(=O)Nc2cccc(NC(=O)c3ccco3)c2)c1", "Potency": "inconclusive [inhibitor, single point]"}
{"smiles": "COc1ccc(NC(=O)c2ccc(-c3ccccc3)cc2)cc1NS(=O)(=O)c1ccc(F)cc1", "Potency": "inconclusive [inhibitor, partial curve]"}
